The values below come from PubChem BioAssay AID1347073 (National Center for Advancing Translational Sciences (NCATS), 2019).

The structures appear in SMILES notation. Among all 45,000 compounds or so, about 200 (0.44%) were called active. Another 7% or so got no clear call; they are omitted. Calls come from the whole dose curve; as a rule, active = well fitted activation curve with a large enough effect; inconclusive = small, poorly fitted or top-dose-only effect; inactive = no such curve, though single readings can be large or run the other way. The list shows a part of the results.

The nature of this assay: qHTS of TDP-43 Inhibitors: NCGC Sytravon Library Screen. Note: 0% is about no effect; nearly all actives have a fitted effect of over 55% in size. The conditions noted are these: yeast TDP-43 toxicity rescue, BacTiter-Glo growth, 24 h; series mostly up to 46.1 µM; growth rescue (activation): at the top concentration. An outline of the steps:
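TDP-43-expressing yeast, pregrown in raffinose, seeded at OD600 0.02 in galactose medium with compound for 24 hr at 30 deg C. Growth read by BacTiter-Glo luminescence, so rescue of toxicity appears as activation.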
As for `CCOC(=O)c1nc2ccccc2c(=O)[nH]1`, the “growth rescue (activation)” value was inactive: 14.3%. The figure for `Clc1ccccc1Cc1noc(CN2CCCCC2CCc2ccccn2)n1` (stereo unspecified) is inactive: -8.46%; for `CN(c1ccccc1C(=O)Nc1cccc([N+](=O)[O-])c1)S(C)(=O)=O` it is inactive: 14.4%. On to `COc1ccc(/C(=N/O)C(C)(C)NO)cc1`, for which the “growth rescue (activation)” value was inactive: -23.1%. The figure for `Cc1cc(NC(=O)COc2ccc3ccccc3c2)no1` is inactive: -1.46%; for `CC12CCC(C(=O)N/N=C/c3ccc(O)cc3O)(OC1=O)C2(C)C` (stereo unspecified) it is inactive: -5.3%; for `Cc1ccc(NC(=O)CN2C(=O)C(c3ccc(F)cc3)=NC23CCCCC3)c(C)c1` it is inactive: 34.5%. The figure for `O=C(N/N=C/c1ccc(Cl)s1)c1ccccc1[N+](=O)[O-]` is inactive: 15.8%; for `O=C(Nc1ccc2c(c1)CCC2)c1cc2ccccc2o1` it is inactive: 6.4%.

`COc1ccc2cc(C(=O)N/N=C/c3sc4ccccc4c3O)ccc2c1`: the “growth rescue (activation)” value was inactive: 45.4%. The figure for `CCCCn1c(N)c(N(CC)C(=O)c2cccs2)c(=O)[nH]c1=O` is inactive: -6.75%; for `O=C(/C=C/c1c(F)cccc1Cl)Nc1ncccn1` it is inactive: 21.4%; for `COc1ccc(C2NC(Cc3ccccc3)(C(=O)O)C3C(=O)N(c4ccccc4OC)C(=O)C23)cc1` (stereo unspecified) it is inactive: 13.1%.

Consider `COc1ccc(NC(=S)N2CCC(N(C)CC3CCCO3)CC2)cc1Cl` (stereo unspecified), for which the “growth rescue (activation)” value is inactive: 10.8%. The figure for `CC(C)COP(=O)(c1ccc(N(C)C)cc1)C(Nc1ccccc1)c1ccccc1` (stereo unspecified) is inactive: -0.423%; for `N#CC1(NC(=O)CSc2nc3ccccc3o2)CCCCC1` it is inactive: -4.11%. Consider `O=C(CSCCc1ccccn1)Nc1ccccn1`, for which the “growth rescue (activation)” value was inactive: -62.9%. Consider `Cc1ccc(-n2c(CSc3nc(C)cc(C)n3)n[nH]c2=S)cc1`, for which the “growth rescue (activation)” value is inactive: 1.46%. The figure for `Cc1nn(C)c(C)c1CN(C)C(=O)c1cc2nc(-c3ccco3)cc(C(F)(F)F)n2n1` is inactive: -7.85%. The figure for `COc1ccc(COC(=O)CNC(=O)C2CCCCC2)cc1F` is inactive: 17.3%. The figure for `CC(=O)c1ccc(Nc2nc(-c3cccnc3)cs2)cc1` is inactive: -6.64%; for `O=C(CSc1nncn1-c1ccccc1)NC1CCCCC1` it is inactive: 0.383%; for `Cc1ccccc1NC(=O)C(Cl)=C(Cl)Cl` it is inactive: 17.3%. In the case of `O=C(COC(=O)c1cccs1)NC12CC3CC(CC(C3)C1)C2`, the “growth rescue (activation)” value is inactive: 6.5%. On to `CCCc1cc(=O)oc2c(CN(CC)CC)c(O)c(Cl)cc12`, for which the “growth rescue (activation)” value is inactive: 3.56%. The figure for `NC(=O)CS(=O)(=O)c1ccc(Cl)cc1` is inactive: 10%; for `CN(C(=O)CSc1nc2ccccc2o1)C1CCS(=O)(=O)C1` (stereo unspecified) it is inactive: 19.9%; for `O=C(COc1ccc(Cl)cc1)NCCCNC(=O)c1cnccn1` it is inactive: 2.94%. The figure for `O=C(NCc1ccc(-c2nc3ccccc3s2)cc1)c1ccc(Br)o1` is inactive: 24.8%; for `Cn1cc(C=O)c(-c2ccc3c(c2)OCCCO3)n1` it is inactive: 0.257%; for `CCOC(=O)c1ccc(NC(=O)C2Cc3ccccc3CN2S(=O)(=O)c2ccc(Cl)cc2)cc1` (stereo unspecified) it is inactive: 1.11%.

Regarding `Cc1cc(Br)ccc1NC(=O)CCS(=O)(=O)c1cccc2nonc12`, the “growth rescue (activation)” value was inactive: 5.57%.

`CC1(c2ccc(Cl)cc2)NC(=S)N2C1NC(=S)N2c1ccccc1` (stereo unspecified): the “growth rescue (activation)” value was inactive: -3.25%. In the case of `CCc1nc2ccc(C(=O)N(C)CCCN(C)C)cn2c1N(C)C(=O)C1CCCCC1`, the “growth rescue (activation)” value was inactive: -6.32%.

For the molecule `Brc1ccc(-c2csc(NC3=NCCCCC3)n2)cc1`, the “growth rescue (activation)” value is inactive: -1.6%.

As for `Cc1ccc(N(C)S(=O)(=O)c2cccc(C(=O)OCC(=O)c3c(N)n(C)c(=O)n(C)c3=O)c2)cc1`, the “growth rescue (activation)” value was inactive: -6.28%.

On to `Cc1cc(C=O)c(C)n1-c1ccc(N2CCCC2)c([N+](=O)[O-])c1`, for which the “growth rescue (activation)” value is inactive: -6.69%. Regarding `CC(=O)NC(c1ccccc1)c1nc(-c2cccc(CO)c2)cs1` (stereo unspecified), the “growth rescue (activation)” value is inactive: 23.9%. The figure for `CN(C)c1ccc(C(=O)OCC(=O)N2CCCC2)cc1` is inactive: -5.95%; for `CC(C)(C)c1ccc(C(=O)NCCCn2ccnc2)cc1` it is inactive: -1.08%; for `CC(C)CCNC(=O)C1CCCN(S(=O)(=O)c2ccc(-n3cnnn3)cc2)C1` (stereo unspecified) it is inactive: -5.43%. The figure for `CC(/C=C/c1ccco1)=N\NC(=O)COc1ccc(C)c(C)c1` is inactive: 6.36%; for `Cc1cccc(-n2cc(-c3ccccc3)[nH]c2=S)c1` it is inactive: 18.4%. `CCN(CC)S(=O)(=O)c1ccc(O)c(C(=O)OCC(=O)NC23CC4CC(CC(C4)C2)C3)c1`: the “growth rescue (activation)” value is inactive: 9.95%.

Regarding `COc1ccc(Cl)c(-c2cc(C(=O)Nc3ccc(C)c(NS(C)(=O)=O)c3)[nH]n2)c1`, the “growth rescue (activation)” value is inactive: 15.3%. As for `CC(NC(=O)/C(C#N)=C/c1ccc(N2CCOCC2)cc1)c1ccccc1` (stereo unspecified), the “growth rescue (activation)” value was inactive: 12.5%. The figure for `O=C(COC(=O)/C=C/c1cccs1)NC1CC1` is inactive: -7.73%. Turning to `CCn1c(CN2CCOCC2)nnc1SCC(=O)Nc1ccc(C)cc1`, the “growth rescue (activation)” value is inactive: 1.07%. The figure for `CC(C)(O)C#Cc1ccc(CN2CCN(Cc3ccsc3)C(CCO)C2)cc1` (stereo unspecified) is inactive: 2.67%.

`Cc1ccc(N2Cc3ccccc3C2=S)cc1`: the “growth rescue (activation)” value was inactive: 31.7%. For the molecule `CCCc1c(O)nc(SCC(=O)O)[nH]c1=O`, the “growth rescue (activation)” value was inactive: -4.31%. As for `O=C(NC1CCN(S(=O)(=O)c2ccccc2C(F)(F)F)CC1)c1ccco1`, the “growth rescue (activation)” value was inactive: 16.3%. The figure for `COc1ccc(OC)c(NC(=O)C(=O)NCCC2=CCCCC2)c1` is inactive: -16.3%; for `CCC(C)c1ccccc1NC(=O)CN(C)CC(=O)Nc1ccccc1SC` (stereo unspecified) it is inactive: 4.38%.

As to `COc1cccc(-c2nc3c(c(=O)[nH]c(=O)n3Cc3ccccc3)n2CCO)c1OC(F)F`, the “growth rescue (activation)” value was inactive: -6.31%. The figure for `O=C(CNC(=O)c1cccc(Br)c1)N/N=C/c1ccc2c(c1)OCO2` is inactive: 2.12%.
